Reference: the supplement of paper PMC4967469
A lower IC50 marks a more sensitive line; a limit (>, <) means that the fit lies beyond the doses tested. For AUC the same curve is integrated over the 256-fold range of doses and scaled to a fraction; it is 1 without any effect and falls as sensitivity rises. For some assays here: Any top dose called inferred comes from the curve model; the source does not state it.

How the values were obtained:
Experiment in all cases: Viability of human cancer cell lines after 72 h of drug (GDSC screen)
[1] = compound: CN1CCc2c(c3ccccc3n2Cc2ccc(C(=O)NO)cc2)C1 [Tubastatin A]; conditions: top dose 20 µM
Description: (§1)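 Human cancer cell lines in 384-well plates, medium with 10% serum, drug for 72 h over a 256-fold dose range (nine 2-fold or five 4-fold steps up to the top dose). Adherent lines were fixed and stained with the nucleic acid dye Syto60, suspension lines read with resazurin; signal relative to control wells, capped at 0 and 100%. One two-parameter sigmoid per drug and line, fitted in a mixed model over all curves with the slope shared within a line.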

[2] = compound: O=C(NOCC1CC1)c1ccc(F)c(F)c1Nc1ccc(I)cc1Cl [CI-1040]; conditions: top dose 10 µM; top dose inferred
Description: as §1

[3] = compound: Cn1nnc2c(C(N)=O)ncn2c1=O [Temozolomide]; conditions: top dose 30 µM
Description: as §1

[4] = compound: COc1cc2c(Oc3ccc(NC(=O)C4(C(=O)Nc5ccc(F)cc5)CC4)cc3F)ccnc2cc1OCCCN1CCOCC1 [XL-880]; conditions: top dose 5.12 µM; top dose inferred
Description: as §1

[5] = compound: CCC(=O)N1CCN(c2ccc(-n3c(=O)ccc4cnc5ccc(-c6cnc7ccccc7c6)cc5c43)cc2C(F)(F)F)CC1 [JW-7-52-1]; conditions: top dose 1.2 µM; top dose inferred
Description: as §1

[6] = compound: CO[C@H]1C[C@@H]2CC[C@@H](C)[C@@](O)(O2)C(=O)C(=O)N2CCCC[C@H]2C(=O)O[C@H]([C@H](C)C[C@@H]2CC[C@@H](O)[C@H](OC)C2)CC(=O)[C@H](C)/C=C(\C)[C@@H](O)[C@@H](OC)C(=O)[C@H](C)C[C@H](C)/C=C/C=C/C=C/1C [Rapamycin]; conditions: top dose 0.1 µM; top dose inferred
Description: as §1

[7] = compound: Oc1ccc2ccccc2c1SSc1c(O)ccc2ccccc12 [IPA-3]; conditions: top dose 32 µM; top dose inferred
Description: as §1

[8] = compound: CCCC[C@@H](C=O)NC(=O)[C@H](CC(C)C)NC(=O)[C@H](CC(C)C)NC(=O)OCc1ccccc1 [Z-LLNle-CHO]; conditions: top dose 2.56 µM; top dose inferred
Description: as §1

Row | Cell Line | AUC [1] | IC50 [1] [nM] | AUC [2] | IC50 [2] [nM] | AUC [3] | IC50 [3] [nM] | AUC [4] | IC50 [4] [nM] | AUC [5] | IC50 [5] [nM] | AUC [6] | IC50 [6] [nM] | AUC [7] | IC50 [7] [nM] | AUC [8] | IC50 [8] [nM]
1 | NCI-H1092 (small cell lung carcinoma, suspension) | 0.977 | > 20000 | 0.973 | > 10000 | 0.984 | > 30000 | 0.762 | 1840 | 0.876 | > 1200 | 0.975 | > 100 | 0.977 | > 32000 | 0.85 | 1960
2 | KARPAS-422 (B-cell lymphoma, suspension) | 0.947 | > 20000 | 0.96 | > 10000 | 0.971 | > 30000 | 0.713 | 1270 | 0.562 | 110 | 0.718 | 25.6 | 0.682 | 6380 | 0.754 | 849
3 | L-1236 (Hodgkin lymphoma, suspension) | 0.971 | > 20000 | 0.875 | 7260 | 0.991 | > 30000 | 0.833 | 2610 | 0.569 | 112 | 0.789 | 36.8 | 0.988 | > 32000 | 0.761 | 780
4 | LU-134-A (small cell lung carcinoma, suspension) | 0.939 | > 20000 | 0.974 | > 10000 | 0.973 | > 30000 | 0.559 | 470 | 0.773 | 497 | 0.969 | > 100 | 0.987 | > 32000 | 0.89 | > 2560
5 | NU-DUL-1 (B-cell lymphoma, suspension) | 0.783 | 6740 | 0.857 | 5730 | 0.984 | > 30000 | 0.503 | 326 | 0.505 | 77.2 | 0.784 | 33.9 | 0.713 | 6920 | 0.805 | 1000
6 | SW962 (urogenital system, adherent) | 0.963 | > 20000 | 0.803 | 6440 | 0.977 | > 30000 | 0.581 | 562 | 0.436 | 48 | 0.822 | 78.2 | 0.862 | > 32000 | 0.778 | 1310
7 | JVM-2 (lymphoid neoplasm, suspension) | 0.954 | > 20000 | 0.775 | 4880 | 0.806 | 19600 | 0.76 | 2190 | 0.833 | 1030 | 0.892 | > 100 | 0.979 | > 32000 | 0.86 | > 2560
8 | COLO-824 (breast, adherent) | 0.979 | > 20000 | 0.987 | > 10000 | 0.982 | > 30000 | 0.719 | 1360 | 0.776 | 487 | 0.936 | > 100 | 0.951 | > 32000 | 0.946 | > 2560
9 | HT (B-cell lymphoma, suspension) | 0.887 | 19200 | 0.984 | > 10000 | 0.964 | > 30000 | 0.719 | 1260 | 0.514 | 81.8 | 0.767 | 34.3 | 0.937 | > 32000 | 0.723 | 647
10 | BV-173 (chronic myeloid leukaemia, suspension) | 0.815 | 9350 | 0.6 | 1130 | 0.976 | > 30000 | 0.457 | 247 | 0.338 | 28.2 | 0.809 | 44.8 | 0.833 | 17300 | 0.814 | 1190
11 | MOLT-4 (lymphoblastic leukaemia, suspension) | – | – | 0.827 | 4630 | 0.977 | > 30000 | 0.562 | 456 | 0.493 | 71.9 | 0.855 | 57.5 | 0.818 | 13900 | 0.775 | 826
12 | LC4-1 (lymphoblastic leukaemia, suspension) | 0.794 | 10300 | 0.962 | > 10000 | 0.974 | > 30000 | 0.746 | 1770 | 0.53 | 91.5 | 0.678 | 20.8 | 0.906 | > 32000 | 0.723 | 740
13 | RPMI-6666 (Hodgkin lymphoma, suspension) | 0.795 | 11500 | 0.922 | > 10000 | 0.954 | > 30000 | 0.449 | 226 | 0.671 | 250 | 0.644 | 17.1 | 0.874 | > 32000 | 0.719 | 769
14 | BE2-M17 (neuroblastoma, adherent) | 0.975 | > 20000 | 0.748 | 3300 | 0.985 | > 30000 | 0.807 | 2720 | 0.815 | 683 | 0.944 | > 100 | 0.854 | 26500 | 0.861 | 2270
15 | DJM-1 (skin, adherent) | 0.988 | > 20000 | 0.868 | 8980 | 0.973 | > 30000 | 0.734 | 1480 | 0.879 | > 1200 | 0.979 | > 100 | 0.988 | > 32000 | 0.893 | > 2560
16 | KE-37 (lymphoblastic leukaemia, suspension) | 0.847 | 9760 | 0.904 | 7690 | 0.994 | > 30000 | 0.619 | 626 | 0.253 | 18.2 | 0.575 | 9.53 | 0.602 | 3550 | 0.686 | 459
17 | HD-MY-Z (Hodgkin lymphoma, adherent) | 0.904 | > 20000 | 0.646 | – | 0.981 | > 30000 | 0.539 | 409 | 0.254 | 14.8 | 0.868 | 91.7 | 0.806 | 16400 | 0.799 | 1230
18 | COR-L279 (small cell lung carcinoma, suspension) | 0.827 | 10500 | 0.975 | > 10000 | 0.978 | > 30000 | 0.605 | 601 | 0.568 | 112 | 0.762 | 32.2 | 0.991 | > 32000 | 0.939 | > 2560
19 | IST-SL1 (small cell lung carcinoma, semi-adherent) | 0.742 | 6310 | 0.924 | > 10000 | 0.968 | > 30000 | 0.495 | 311 | 0.758 | 426 | 0.912 | > 100 | 0.937 | > 32000 | 0.804 | 1320
20 | EW-13 (Ewing sarcoma, suspension) | 0.891 | > 20000 | 0.975 | > 10000 | 0.975 | > 30000 | 0.594 | 598 | 0.919 | > 1200 | 0.964 | > 100 | 0.654 | 5620 | 0.967 | > 2560
21 | NCI-H1836 (small cell lung carcinoma, suspension) | 0.937 | > 20000 | 0.985 | > 10000 | 0.936 | > 30000 | 0.87 | > 5120 | 0.912 | > 1200 | 0.936 | > 100 | 0.969 | > 32000 | 0.966 | > 2560
22 | NCI-SNU-1 (stomach, suspension) | 0.952 | > 20000 | 0.927 | > 10000 | 0.978 | > 30000 | 0.496 | 311 | 0.788 | 544 | 0.915 | > 100 | 0.985 | > 32000 | 0.969 | > 2560
23 | MPP-89 (mesothelioma, adherent) | 0.894 | > 20000 | 0.871 | > 10000 | 0.887 | > 30000 | 0.673 | 1130 | 0.593 | 146 | 0.978 | > 100 | 0.98 | > 32000 | 0.842 | > 2560
24 | CTV-1 (acute myeloid leukaemia, suspension) | 0.934 | > 20000 | 0.912 | 9400 | 0.981 | > 30000 | 0.491 | 304 | 0.292 | 22.4 | 0.907 | 88.9 | 0.716 | 7060 | 0.842 | 1310
25 | EHEB (lymphoid neoplasm, suspension) | – | – | 0.869 | > 10000 | 0.957 | > 30000 | – | – | 0.694 | 342 | 0.747 | 45.5 | 0.698 | 9420 | 0.779 | 1580
26 | KARPAS-231 (B-cell leukaemia, suspension) | – | – | 0.854 | 5220 | 0.989 | > 30000 | – | – | 0.372 | 36.4 | 0.286 | 1.84 | 0.628 | 4120 | 0.796 | 901
27 | CTB-1 (B-cell lymphoma, suspension) | – | – | 0.887 | > 10000 | 0.965 | > 30000 | 0.758 | 2410 | 0.649 | 226 | 0.84 | > 100 | 0.737 | 12400 | 0.876 | > 2560
28 | IM-9 (myeloma, suspension) | – | – | 0.913 | > 10000 | 0.935 | > 30000 | – | – | 0.982 | > 1200 | 0.987 | > 100 | 0.731 | 8140 | 0.957 | > 2560
